These are yes or no findings as the source states them, for the method shown. In cells and extracts the contact can be indirect. Some results given as binding are weak or reduced against the parent protein; the word gives no strength. For some of these results: Sequences can lack the tags named with a protein. Each block holds one molecule with its values, some of them ahead of it.
What was measured:
[1] = target: alpha-Enolase (ENO1), endogenous (human (endogenous in AGS / gastric cancer cells)) (UniProt P06733); assay: co-IP; endogenous proteins, cell lysate (GC cells); 1 mg protein with 5 ug primary antibody or IgG overnight at 4 °C; also with CCDC65 overexpression (Figure 6I) or si-CCDC65 (Figure 7E)
[2] = target: T1, coiled-coil domain containing 65 (CCDC65), endogenous (human (endogenous in AGS / gastric cancer cells)) (UniProt Q8IXS2); assay: as above
T1 sequence: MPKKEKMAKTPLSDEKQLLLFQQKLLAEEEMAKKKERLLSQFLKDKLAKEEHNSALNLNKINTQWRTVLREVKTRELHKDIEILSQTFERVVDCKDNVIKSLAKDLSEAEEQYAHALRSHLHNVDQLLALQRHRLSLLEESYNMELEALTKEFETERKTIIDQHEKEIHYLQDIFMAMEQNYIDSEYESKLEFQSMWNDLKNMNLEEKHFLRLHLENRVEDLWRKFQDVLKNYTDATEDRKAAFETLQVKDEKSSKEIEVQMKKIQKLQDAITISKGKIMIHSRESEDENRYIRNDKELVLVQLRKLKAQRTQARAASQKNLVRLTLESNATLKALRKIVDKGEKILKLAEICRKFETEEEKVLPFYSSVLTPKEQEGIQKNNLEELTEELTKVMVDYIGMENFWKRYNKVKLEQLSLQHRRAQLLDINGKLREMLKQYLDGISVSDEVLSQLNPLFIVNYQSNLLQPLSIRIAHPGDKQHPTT

Protein sequences, listed by entry. Tags and fused reporters are not part of them. Lines headed by an entry give the natural chain unless they say otherwise; changes in a name come on top. Residues count along the entry.
UniProt P06733: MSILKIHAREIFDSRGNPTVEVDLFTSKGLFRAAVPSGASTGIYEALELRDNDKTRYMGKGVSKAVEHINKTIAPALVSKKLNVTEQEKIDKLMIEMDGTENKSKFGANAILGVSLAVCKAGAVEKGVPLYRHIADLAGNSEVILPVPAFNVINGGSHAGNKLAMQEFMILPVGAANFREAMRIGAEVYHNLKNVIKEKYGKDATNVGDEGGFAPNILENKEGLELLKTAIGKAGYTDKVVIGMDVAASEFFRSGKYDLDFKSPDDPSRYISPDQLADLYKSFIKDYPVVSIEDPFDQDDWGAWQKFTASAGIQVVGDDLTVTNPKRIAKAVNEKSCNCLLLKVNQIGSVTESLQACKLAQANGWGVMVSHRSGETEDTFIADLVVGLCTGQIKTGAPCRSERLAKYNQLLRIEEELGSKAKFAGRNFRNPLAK
Myc-ENO1-1-138: residues 1-138 of P06733
Myc-ENO1-140-434: residues 140-434 of P06733
UniProt Q969H0: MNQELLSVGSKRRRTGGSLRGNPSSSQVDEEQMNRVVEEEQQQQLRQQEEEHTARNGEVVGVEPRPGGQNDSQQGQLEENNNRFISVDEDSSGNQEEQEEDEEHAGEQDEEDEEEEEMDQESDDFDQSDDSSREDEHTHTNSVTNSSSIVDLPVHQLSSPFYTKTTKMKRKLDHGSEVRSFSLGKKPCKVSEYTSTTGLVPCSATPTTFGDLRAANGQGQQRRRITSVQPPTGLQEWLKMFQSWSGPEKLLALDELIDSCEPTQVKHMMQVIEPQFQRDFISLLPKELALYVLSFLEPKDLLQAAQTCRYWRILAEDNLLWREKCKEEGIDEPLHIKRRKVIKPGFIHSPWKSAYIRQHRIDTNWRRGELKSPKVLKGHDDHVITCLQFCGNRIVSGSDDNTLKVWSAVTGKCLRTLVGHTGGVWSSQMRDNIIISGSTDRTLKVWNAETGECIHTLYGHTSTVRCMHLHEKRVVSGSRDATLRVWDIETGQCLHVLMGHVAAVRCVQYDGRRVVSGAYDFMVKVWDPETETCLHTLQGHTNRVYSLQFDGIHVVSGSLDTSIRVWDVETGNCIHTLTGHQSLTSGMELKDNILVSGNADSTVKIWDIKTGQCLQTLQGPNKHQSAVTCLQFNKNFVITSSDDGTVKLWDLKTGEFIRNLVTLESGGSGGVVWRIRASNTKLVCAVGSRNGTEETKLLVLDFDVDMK
UniProt P31749: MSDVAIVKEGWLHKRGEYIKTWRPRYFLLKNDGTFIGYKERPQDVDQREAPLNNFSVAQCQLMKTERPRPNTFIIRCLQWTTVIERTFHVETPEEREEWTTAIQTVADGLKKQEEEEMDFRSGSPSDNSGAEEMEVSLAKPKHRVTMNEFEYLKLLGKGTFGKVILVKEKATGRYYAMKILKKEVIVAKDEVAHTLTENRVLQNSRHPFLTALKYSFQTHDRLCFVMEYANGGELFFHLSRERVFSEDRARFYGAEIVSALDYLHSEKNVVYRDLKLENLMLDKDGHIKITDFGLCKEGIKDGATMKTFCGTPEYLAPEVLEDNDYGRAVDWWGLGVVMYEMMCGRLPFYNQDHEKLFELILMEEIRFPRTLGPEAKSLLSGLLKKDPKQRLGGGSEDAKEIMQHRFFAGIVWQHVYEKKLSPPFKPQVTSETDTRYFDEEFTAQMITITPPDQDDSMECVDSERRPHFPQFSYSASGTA

[3] = target: T2, GST-CCDC65 (human) (UniProt Q8IXS2); assay: pull-down; GST pull-down: total protein with His-ENO1 or His-FBXW7 incubated with GST-CCDC65 or GST-control at 4 °C overnight, then glutathione-sepharose beads 2 h; Western blot; only the target purified
T2 sequence: T1 sequence

[4] = target: T3, wild type (WT) CCDC65, exogenous full length (human) (UniProt Q8IXS2); assay: co-IP; exogenous: tagged proteins transfected (HEK293T in Figures 5E, 5F, 7D); IP with anti-Flag or anti-Myc, Western blot
T3 sequence: T1 sequence

[5] = target: T4, Flag-CCDC65-130-484 (human) (UniProt Q8IXS2); assay: as above
T4 sequence: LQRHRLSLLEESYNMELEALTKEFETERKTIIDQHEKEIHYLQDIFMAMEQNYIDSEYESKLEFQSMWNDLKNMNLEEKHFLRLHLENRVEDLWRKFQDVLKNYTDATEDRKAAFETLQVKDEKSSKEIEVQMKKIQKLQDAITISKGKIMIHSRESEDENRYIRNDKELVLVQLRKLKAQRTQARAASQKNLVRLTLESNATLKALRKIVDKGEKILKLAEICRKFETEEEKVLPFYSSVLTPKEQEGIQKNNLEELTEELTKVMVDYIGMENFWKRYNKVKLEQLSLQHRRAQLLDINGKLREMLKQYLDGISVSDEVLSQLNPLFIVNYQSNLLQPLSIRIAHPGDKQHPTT

[6] = target: T5, Flag-CCDC65-1-130 (human) (UniProt Q8IXS2); assay: as above
T5 sequence: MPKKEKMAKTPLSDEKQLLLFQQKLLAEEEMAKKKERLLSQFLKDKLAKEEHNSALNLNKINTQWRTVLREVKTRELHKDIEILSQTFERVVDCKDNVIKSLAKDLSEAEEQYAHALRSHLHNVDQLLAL

[7] = target: Myc-ENO1, full length (human) (UniProt P06733); assay: as above
[8] = target: Myc-ENO1-1-138 (human) (UniProt P06733); assay: as above
[9] = target: Myc-ENO1-140-434 (human) (UniProt P06733); assay: as above

Molecule: F-Box and WD Repeat Domain Containing 7 (FBXW7), endogenous (from UniProt Q969H0 1-707)
binding [1]: binds
binding [2]: binds

Molecule: His-ENO1 (from UniProt P06733 1-434)
binding [3]: binds

Molecule: alpha-Enolase (ENO1), endogenous (from UniProt P06733 1-434)
binding [2]: binds

Molecule: full-length HA-AKT1 (from UniProt P31749 1-480)
binding [7]: binds

Second part, the molecule after the results:

binding [3]: binds
Molecule: His-FBXW7 (from UniProt Q969H0 1-707)

binding [4]: binds
binding [5]: binds
binding [6]: no binding
Molecule: Myc-ENO1, full length (from UniProt P06733 1-434)

binding [1]: binds
binding [2]: no binding
Molecule: RAC-Alpha Serine/Threonine-Protein Kinase (AKT1), endogenous (from UniProt P31749 1-480)

binding [8]: no binding
binding [9]: binds
B1: wild type (WT) CCDC65, exogenous full length (protein, UniProt Q8IXS2 1-484)
chain: T1 sequence

Reference: publication PMC8315052
